Results as given in PubChem BioAssay AID894 (National Center for Advancing Translational Sciences (NCATS), 2007).
In all, about 150,000 compounds went through this assay and about 6,500 (4.3%) were called active. This list was built around the results that the source calls inconclusive (neither active nor inactive); the mix of calls is not that of the screen. The call rests on the fitted dose curve; in most records, active means well fitted inhibition curve with a large enough effect (not every such curve was filed as active); inconclusive means small, poorly fitted or top-dose-only effect, or another doubt; inactive means no such curve, though single readings can be large or run the other way. No potency is given beside an inconclusive call; the fits are too rough.

Biological target: 15-hydroxyprostaglandin dehydrogenase [NAD(+)] (Homo sapiens) (UniProt P15428)
Test: qHTS Assay for Inhibitors of HPGD (15-Hydroxyprostaglandin Dehydrogenase)
Details: purified HPGD, NADH fluorescence kinetic, PGE2 substrate; activity change, negative = inhibition: active compounds read low
Outline: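 NADH formation kinetics: reaction with 30 uM PGE2 and 1 mM NAD+ (final), 20 nM enzyme, Tris-HCl pH 8 with Tween 20, after 15 min compound preincubation at room temperature. Fluorescence change, last versus first of five reads.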
On the % scale 0 is the no-effect control and ±100 the full control effect; potency means the concentration at half of the fitted maximal effect; tags describe the fitted curve by direction and shape.

UniProt P15428, sequence (P15428 whole entry, looked up): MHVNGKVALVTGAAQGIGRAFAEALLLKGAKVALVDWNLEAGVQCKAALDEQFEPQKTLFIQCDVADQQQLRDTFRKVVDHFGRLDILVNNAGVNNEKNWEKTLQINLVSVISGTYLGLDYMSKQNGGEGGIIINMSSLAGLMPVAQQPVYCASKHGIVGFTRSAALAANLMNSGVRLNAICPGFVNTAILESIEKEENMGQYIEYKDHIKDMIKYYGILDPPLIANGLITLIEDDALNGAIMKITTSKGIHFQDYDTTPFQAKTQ

| SMILES | Potency | activity change, negative = inhibition |
| --- | --- | --- |
| O=C(Nc1ccc(-c2nc3cc(NC(=O)c4cccs4)ccc3o2)cc1)c1cccs1 | inconclusive [inhibitor, full curve] |  |
| Cc1ccc(-n2nc(C)c(Sc3ccccc3[N+](=O)[O-])c2N)cc1 | inconclusive [inhibitor, single point] |  |
| Cc1c(CCC(=O)O)c(=O)oc2cc(O)ccc12 | inconclusive [inhibitor, partial curve] |  |
| CCCc1nn(C)c2c(=O)[nH]c(-c3ccccc3OCC)nc12 | inconclusive [inhibitor, single point] |  |
| O=C(CCc1c[nH]c2ccccc12)NC1CC1 | active: 15.8 µM |  |
| N#Cc1ccc(CNc2cnccn2)cc1 | inconclusive [inhibitor, partial curve] |  |
| O=C(c1ccc2nc3ccccc3c(=O)n2c1)N1CCN(Cc2ccc3c(c2)OCO3)CC1 | inconclusive [inhibitor, partial curve] |  |
| COc1ccc(Nc2ncnc3c2cnn3-c2ccccc2)cc1OC | inconclusive [inhibitor, partial curve] |  |
| Cc1ccc(CNC(=O)CS(=O)Cc2nc(-c3ccccc3C)oc2C)cc1 (centres undefined) | inconclusive [inhibitor, partial curve] |  |
| Cc1cc(C(c2nnnn2Cc2ccccc2)N2CCOCC2)c(C)n1-c1ccc2c(c1)OCO2 (centres undefined) |  | inactive: -12.4% |
| COC(=O)c1c(NC(=O)c2ccco2)sc(C(=O)Nc2ccc(F)cc2)c1C | inconclusive [inhibitor, partial curve] |  |
| Cc1ccc2nc(C3CCN(C(=O)c4ccco4)CC3)[nH]c2c1 |  | inactive: -5.3% |
| COc1cc2c(cc1OC)C(Nc1ccc(S(N)(=O)=O)cc1)=NC(C)(C)C2 |  | inactive: -7.98% |
| O=C1C2C3C=CC(C4CC34)C2C(=O)N1/N=C/c1ccc(-c2ccccc2[N+](=O)[O-])o1 (centres undefined) | inconclusive [inhibitor, single point] |  |
| O=C(NCc1ccco1)c1cnccn1 |  | inactive: -17.5% |
| N#Cc1sc2nc3c(c(-c4ccco4)c2c1N)CCCC3 | inconclusive [inhibitor, partial curve] |  |
| Cc1ccc(C=C2C(=O)c3ccccc3C2=O)s1 | active: 12.6 µM |  |
| CN(C)c1ncc2ncc(=O)n(Cc3ccc(F)cc3)c2n1 | inconclusive [inhibitor, partial curve] |  |
| COc1cccc(/C=N/NC(=O)c2cc3cc([N+](=O)[O-])ccc3s2)c1O | active: 28.2 µM |  |
| O=C(CC(c1ccccc1)c1ccccc1)Nc1ccc2c(c1)OCCO2 | inconclusive [inhibitor, partial curve, poor fit] |  |
| CCN1CCc2c(sc(NC(=O)c3ccc(S(=O)(=O)N4CCOCC4)cc3)c2C(=O)OC)C1 |  | inactive: -5.45% |
| COCCn1nnnc1C(c1cc2ccc(OC)cc2[nH]c1=O)N1CCN(C2CCCCC2)CC1 (centres undefined) | inconclusive [inhibitor, partial curve] |  |

| SMILES | Potency | activity change, negative = inhibition |
| --- | --- | --- |
| Cc1cc2c(=O)n(C)c(SCC(=O)c3cc4ccccc4o3)nc2s1 | inconclusive [inhibitor, single point] |  |
| CCOc1ccc2[nH]c(=O)c(CN(Cc3cccs3)C(CC)c3nnnn3C(C)(C)CC)cc2c1 (centres undefined) | inconclusive [inhibitor, single point] |  |
| S=c1nc(-c2ccccc2Br)[nH][nH]1 | active: 12.6 µM |  |
| O=C(NCc1ccccc1)c1csc2c1CCCCC2 | active: 8.91 µM |  |
| CN1CCc2c(sc3nc(SCC(=O)N4CCOCC4)nc(N)c23)C1 | inconclusive [inhibitor, partial curve] |  |
| O=C(O)/C=C/C(=O)Nc1ccccc1-c1ccccc1 | active: 28.2 µM |  |
| CC(=O)c1sc2nc(SCC(=O)N3CCCCC3)[nH]c(=O)c2c1C | inconclusive [inhibitor, partial curve] |  |
| Cc1nonc1OC(C)CNc1ccc([N+](=O)[O-])cc1 (centres undefined) | active: 28.2 µM |  |
| CCOC(=O)c1[nH]c2cc3c(cc2c1NC(=O)CN1CCc2ccccc2C1)OCO3 | inconclusive [inhibitor, partial curve] |  |
| CCOc1ccc2c(c1)n([O-])c1c([n+]2=O)CCCC1 | inconclusive [inhibitor, partial curve] |  |
| CCn1cc(C(=O)O)c(=O)c2cc(F)c(N3CCN[C@@H](C)C3)c(F)c21 | inconclusive [inhibitor, partial curve] |  |
| O=C(Nc1ccccc1C(=O)NCc1ccc(Cl)cc1)c1ccco1 | inconclusive [inhibitor, partial curve] |  |
| O=C(Nc1cccc(Cl)c1)c1ccc(F)c(S(=O)(=O)N2CCN(c3ccccn3)CC2)c1 | inconclusive [inhibitor, single point] |  |
| CCn1c(C)cc(/C=C2/NC(=O)N(Cc3ccccc3F)C2=O)c1C | inconclusive [inhibitor, partial curve, poor fit] |  |
| COc1ccc(/C=C/C(=O)Nc2sc(Cc3ccccc3)c(C)c2C(N)=O)cc1 | inconclusive [inhibitor, partial curve] |  |
| CSc1nc(-c2ccc(Cl)cc2Cl)[nH]c(=O)c1C#N | active: 2.51 µM |  |
| CCCOc1ccc(C2C(C(=O)OC)=CN(CCOC)C=C2C(=O)OC)cc1 | inconclusive [inhibitor, partial curve] |  |
| Cc1ccc(-c2ccc(/C=C/C(=O)c3ccccc3)o2)cc1 | active: 14.1 µM |  |
| CC(C)(C)C1CCC2(CC1)C(C#N)=C(SCC(=O)Nc1ccccc1)NC(=O)C2C#N (centres undefined) | inconclusive [inhibitor, partial curve] |  |
| Cn1c(N)c(N=Nc2ccc(S(N)(=O)=O)cc2)c(=O)n(C)c1=O |  | inactive: -8.4% |
| N#C/C(C(=O)NCc1ccco1)=C1/SC=C(c2ccccc2)N1c1ccccc1 | inconclusive [inhibitor, partial curve] |  |
| CCOc1c2ccc(C(=O)N[C@H](C)C3CCCCC3)cc2nn1CC | inconclusive [inhibitor, partial curve] |  |
